Some of the results follow. At the low end of the ranking the order means little. Measured with an extract: partners may take part in the binding.
The sequences below were run against T1, HNF4alpha2 (COS-7 nuclear extract) (UniProt P41235) (assay: protein-binding microarray). Conditions: COS-7 nuclear extract on double-stranded Agilent 4x180k PBM; binding buffer, salt, pH and temperature not given; high values mean tight binding; double strand, one strand shown; sequences stand for … in …GCCTAGGGAGATTAGAGTATCGGTCGA.
T1 sequence: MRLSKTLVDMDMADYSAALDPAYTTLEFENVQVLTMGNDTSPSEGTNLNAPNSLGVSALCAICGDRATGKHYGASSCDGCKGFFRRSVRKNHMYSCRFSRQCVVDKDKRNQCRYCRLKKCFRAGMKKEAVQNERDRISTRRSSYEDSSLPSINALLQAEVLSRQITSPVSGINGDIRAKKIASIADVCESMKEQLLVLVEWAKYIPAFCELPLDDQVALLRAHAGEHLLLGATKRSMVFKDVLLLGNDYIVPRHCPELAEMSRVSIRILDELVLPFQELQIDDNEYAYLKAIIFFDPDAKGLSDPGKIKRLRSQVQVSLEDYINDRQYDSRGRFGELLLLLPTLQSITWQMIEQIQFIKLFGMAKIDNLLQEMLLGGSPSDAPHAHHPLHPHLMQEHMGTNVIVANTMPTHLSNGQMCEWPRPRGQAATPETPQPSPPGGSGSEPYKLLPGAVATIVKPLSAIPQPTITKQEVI

Row | Sequence | binding signal (log2 normalized intensity)
1 | CAAGGCCTACCTTGGGTTCTCACTATCACC | -1.08
2 | CAGGGTTCACATAGCCACCAGGGCCTCTGA | -1.21
3 | GTGTGTATGAAAGGCCACCAGGTGGAGTCT | 0.616
4 | TAAAGTCACAAAGGTGGAACTCAAGATAGT | 0.0624
5 | CTCGAGATAACCCACCTCCGGCCGGGAAGA | -0.939
6 | GAAAGGAAGATGCACATTCCCTCCAGCAGG | -1.06
7 | CTGGTTGACACTCGAGGATCAGAGACACGA | -1.14
8 | CAGCTGCAGGTGTGGGGGCGGCAGGAGCCA | -1.15
9 | CAGGAATGCCTTTTCTTTCATGTTGTTTAG | 1.94
10 | ATAAGGGAGTTTCAGAGGACTGCCCAGCTG | -1.25
11 | AGACAACCTGGGTGTAGGTGCTGCACCTTG | 1.31
12 | TACTGTCTTTTTGCCACTAGGGGTCACTGT | 3.8
13 | TCTGTTTGATTCCATGCTGATAATGGAATT | 0.756
14 | AAGGTTAAGCCATTGGGCAATCCAATGTCT | -1.12
15 | AATTTTCTCTGTATACTTGTCTTATCAGCA | 0.598
16 | GATGTGGAAATCTGGACTCAGCAGAACTTT | 0.903
17 | GTATTGCTCAATGTCAAACACACTGTAACA | -1.13
18 | TTCAAAGGTTAAGACTTTGAATCAGTAAAT | 1.21
19 | TTGGTGGAATCTGAACTTTTGGCTCCCTGG | 0.743
20 | AGACAGTCACTCCCACCCTTCCTGTTATGT | 2.11
21 | GGATGGGGCCTGGGAGATAAGGGTTCAGAT | 0.715
22 | ATAAGGTAGGCACGTAAATAAGGATAAAGT | -0.018
23 | AGGGCAAAGGTTAGCTTGGACAGAGTTTGT | 3.44
24 | AGCTCCTGGGCCAAAGGGCATTCTGGAGTT | 2.86

Row | Sequence | binding signal (log2 normalized intensity)
25 | AGTTGAGATTTATTCCCAGGTTCCAAAGGT | 2.07
26 | TCAATGATACCATCAGATACCTACTCTGCT | -1.12
27 | AGTGGGGTGGGGGCGAGAGAGTTCTATGGG | -1.22
28 | GATGGCAGCTTCATTCCAGCCCCATTCTGT | -0.167
29 | GGTGAGTCTTTGCCCCTGGACTTTGAATTT | 4.94
30 | GGGACGCGACCTCCGGGAAAGCTATCCCGG | -1.18
31 | TGGTTTATCTGTTGTCAAACCCACATTCTT | 0.626
32 | GGTCCGCAGGGCTGCCTCGCTTCCGGGTGG | -1.13
33 | CTCGGCCTCATGGGCGATCCCGAAAGCCGG | -1.23
34 | ACCCCTGATCTACAAGGTCCATAAAACCAG | -1.11
35 | CACAAACATTCCAGTGGTCCCTGGAGATAA | -0.698
36 | CCCCCGCAACTATTTATGAGTCTTGGGAAT | 0.969
37 | TTTTGCCTCCGCTCCGCCGGACCGGCCAAA | -1.12
38 | GCAGGTTCTCAGAAACGCCTGGCGCTTATC | -1.14
39 | CATACCAGGTGTAAAGTCTGGCATACAGGG | 0.753
40 | AAAGATTCTTAGAGAGTTGGGCAAGACTCG | -1.02
41 | AGGCCACTCCTGATAGCTAGAGAGTTCAAG | -1.13
42 | ACCTTTATCTGATCAGAAATGTTTGGAATT | 1.4
43 | CTGCCTCCCTGTCAGCTTCACTGATAGCGA | -1.15
44 | CCCCTGCATGAACCTTTGCTCCCTGGGAAC | 3.75
45 | CTGTTTACCCACTTGGGGTTCTTGGATCCT | 0.913
46 | AAGTCTCAGAAGCTGGGAGACCACTGGTGT | 0.973
47 | ATGGTGTTTGCTTTGTGAAGGCTTATCTGC | 0.554
48 | TTATCTCCAAGACCCTTCATAGCTTACTTG | -0.711

Row | Sequence | binding signal (log2 normalized intensity)
49 | TTTGCCCCACTCTCCTCTGCCACTGTATCA | 2.33
50 | TTCCACAAGGTCCCATGGCTAATCTGTGAC | -0.772
51 | TCAAATCTAAACCTAGCAGCCTGCCACCCA | -1.07
52 | AATGTACAAAGGTCAACGGCACAAGGAGAT | 4.29
53 | TCAGAGGAATGTCTGACCAACCTGTCCAAA | 0.136
54 | GATAAGATTTTAGAAGTCACTCCTTCCTCA | -1.05
55 | GAGTGGGACAAAGTTCCCCGGGCAGCTGTG | -1.07
56 | CCACTGGAGTCTTGTTTGTCAAGTTTGGTA | 1.81
57 | CGCCCGCGCTGCTCGCAAGCAGAACCTTGG | -1.18
58 | TATCTCACTCCCACACTGGTAACCTTTAGT | 2.25
59 | GAGGCAGCAAGGTCAAAGTGCGTCCTGTGG | 3.92
60 | AAGGAGAACTGAGTAGGAGAATGTTAATGA | -0.408
61 | TCTTGGCCAACAACTAGGGCAAAGGTTAGC | 4.69
62 | CTTTTGAGTTTCTACCATAGACCCTGTTGG | 0.733
63 | ACTTAGCCCTTGTCTTCCTCTCTGAAGGAT | 0.995
64 | CACATGGCCGTAAAGATAAGAACGCTAGAC | -1.12
65 | GAAAACCCGGAGCGGAGCATCCCTCGGGCC | -1.11
66 | ATTAACCCTTTAGTGCCTGGATCTTGGAAC | 1.65
67 | TGTGCCTCTTAGTGAAGGATGGGGACCTTG | 1.33
68 | GTGTGTCAACAGAGTGCTTAATCTCTGCTC | 0.273
69 | ATCCAGAGTGGGACAAAGTTCCCCGGGCAG | -0.737
70 | AGAGAGTCTGGCTGACTAACAAGCTGCCAA | -1.19
71 | AGAGCTCAGAAGCCACCAGTGCAAATATAA | -0.972
72 | ATTGTGATTCCTGTGATACCTTCTTTGCCT | 1.13

Row | Sequence | binding signal (log2 normalized intensity)
73 | TGCATCAGTGCTGACCTACCTGACCTGGCA | 1.28
74 | AAACTTCACAATGGGCCCCAGTAAAAACAG | -0.952
75 | CATCATGCCCTTTGGCCCCCAGAGCCCCGT | 6
76 | TTCTTCCCTCACTTACATCCTCAGGTAAAG | 1.8
77 | TGGATGTTGAACCTCTGTCCTTGGCCTCAC | 1.71
78 | TGGAGGGCAGTGGATGGGGGCGTTCCCCGA | -0.0239
79 | ACCTACGGGTCAAGGGTTCAGGGCTCAGTT | 2.15
80 | CCATGCTCTTTGGCCTGGCATTTGAGACTA | -0.793
81 | GCGCGGACATAAAATTAAAGCGGACGGGCT | -1.09
82 | AGATTGCATCTGTTTTTATTTCCCCTTTCT | 2.05
83 | TTTGTGAGAGGTCAATGTCCAGTTCCGCTG | 4.67
84 | AGGGGCTATTTCTGACCTTTGCACCAGAGA | 6.87
85 | CCTCTGGCCACCAGTTATTCATGTCCCTAC | -0.784
86 | TTGAGCTGCATATTTGAGTAGGATTTTGCT | -1.05
87 | AGCCTGTGTGCTGAGAGTTGGAAAATGTCG | -0.147
88 | CCAAATGACGCTTTAAGTAGGCACTATTAT | -0.879
89 | GGCCAGGTGGGCTGCTCCCAGTGCCCTTTG | 3.73
90 | TGATATTGGGTGAGTGTTAGAGCACCCTCT | -0.244
91 | ATGTTCAGGATTACTATAGGTTCTACTCTC | -0.807
92 | CAAAACTTCACCTCCCCTAGACTTACTATT | 1.26
93 | AGGTTAAGACTTTGAATCAGTAAATATTTG | 0.901

— article PMC10726135
